Assay results: PubChem BioAssay AID504339 (National Center for Advancing Translational Sciences (NCATS), 2011)
Out of some 390,000 compounds screened, about 17,000 (4.4%) were called active. The shares of active, inactive and inconclusive entries below differ from those in the screen. The call rests on the fitted dose curve; in most records, active means well fitted inhibition curve with a large enough effect; inconclusive means small, poorly fitted or top-dose-only effect; inactive means no such curve, though single readings can be large or run the other way. Potencies of inconclusive entries are doubtful fits and often do not repeat.
Further: nearly all actives have a fitted effect of over 50% in size.
On the % scale 0 is the no-effect control and ±100 the full control effect; potency means the concentration at half of the fitted maximal effect; tags describe the fitted curve by direction and shape.

The compounds below were run against Lysine-specific demethylase 4A (Homo sapiens) (UniProt O75164) (assay: qHTS Assay for Inhibitors of JMJD2A-Tudor Domain). Conditions: AlphaScreen JMJD2A-Tudor / H3K4me3 peptide binding; activity change, negative = inhibition: at 114 µM (top of the series).
Sequence of UniProt O75164 (O75164 whole entry, looked up, the tested form may be a part): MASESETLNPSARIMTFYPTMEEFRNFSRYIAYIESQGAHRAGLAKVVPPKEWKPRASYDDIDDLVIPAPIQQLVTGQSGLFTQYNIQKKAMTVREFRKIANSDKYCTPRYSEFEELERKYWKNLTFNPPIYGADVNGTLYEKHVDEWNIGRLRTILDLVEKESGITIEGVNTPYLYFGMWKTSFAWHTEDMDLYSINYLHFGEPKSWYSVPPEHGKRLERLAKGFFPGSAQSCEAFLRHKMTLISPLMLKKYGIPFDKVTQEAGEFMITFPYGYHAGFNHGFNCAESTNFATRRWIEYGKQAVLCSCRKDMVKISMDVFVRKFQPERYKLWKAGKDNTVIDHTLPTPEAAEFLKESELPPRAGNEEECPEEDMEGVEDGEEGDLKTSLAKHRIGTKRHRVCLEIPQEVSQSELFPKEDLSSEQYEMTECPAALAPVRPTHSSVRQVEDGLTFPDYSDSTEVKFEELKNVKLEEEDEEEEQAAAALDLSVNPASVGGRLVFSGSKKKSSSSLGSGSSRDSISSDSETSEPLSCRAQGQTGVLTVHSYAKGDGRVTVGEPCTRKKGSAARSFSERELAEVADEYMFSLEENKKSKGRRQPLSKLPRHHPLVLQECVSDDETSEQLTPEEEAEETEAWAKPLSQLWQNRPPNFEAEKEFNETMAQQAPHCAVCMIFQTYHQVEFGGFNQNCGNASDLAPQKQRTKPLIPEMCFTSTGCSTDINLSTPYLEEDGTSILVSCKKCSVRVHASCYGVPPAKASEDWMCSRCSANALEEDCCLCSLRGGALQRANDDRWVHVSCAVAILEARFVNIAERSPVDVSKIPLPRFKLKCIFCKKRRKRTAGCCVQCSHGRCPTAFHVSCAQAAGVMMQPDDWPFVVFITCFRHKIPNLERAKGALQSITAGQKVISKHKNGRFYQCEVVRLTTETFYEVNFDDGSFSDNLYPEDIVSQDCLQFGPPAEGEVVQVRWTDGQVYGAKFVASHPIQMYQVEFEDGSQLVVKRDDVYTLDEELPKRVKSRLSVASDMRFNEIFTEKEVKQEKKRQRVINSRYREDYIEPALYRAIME
With `COc1ccc(CNC(=O)c2cc(-c3ccccc3O)n[nH]2)cc1` the Potency was inconclusive: 79.4 µM [inhibitor, partial curve].
In the case of `O=C(/C=C/c1cccc2ccccc12)c1ccncc1`, the Potency is reported as inconclusive: 31.6 µM [inhibitor, partial curve].
In the case of `O=C1C(=C(I)I)c2ccccc2-c2ccccc21`, the Potency is reported as active: 25.1 µM.
For `CN(C1=C(NC(=O)c2ccccc2)C(=O)c2ccccc2C1=O)C1CCS(=O)(=O)C1` (centres undefined), the Potency was inconclusive: 79.4 µM [inhibitor, single point].
With `CC1=NOC(=O)/C1=C\c1ccccc1` the Potency was active: 25.1 µM.
In the case of `COc1ccc(CNC(=O)C2CCN(S(=O)(=O)c3cccc(-c4noc(C)n4)c3)CC2)cc1`, the “activity change, negative = inhibition” value is reported as inactive: -24.3%.
`Cc1cc(C)cc(C(=O)NN2CCN(C)CC2)c1` was tested, and the Potency was active: 22.4 µM.
In the case of `Cc1ccc(NC(=O)CSCc2cc(=O)c3ccccc3[nH]2)c(C)c1`, the “activity change, negative = inhibition” value is reported as inactive: -7.14%.
`CN(C)c1cccc2cccc(N(C)C)c12` was tested, and the “activity change, negative = inhibition” value was inactive: -5.52%.
With `O=C1CCC(C(=O)Nc2ccc([N+](=O)[O-])cc2)N1` (centres undefined) the “activity change, negative = inhibition” value was inactive: -8.27%.
In the case of `COc1ccc(CC2(C)OC(c3ccc(C)c([N+](=O)[O-])c3)=NN2C(C)=O)cc1` (centres undefined), the Potency is reported as active: 79.4 µM.
For `COc1ccc(CCNc2ncnc3sc(C)cc23)cc1OC`, the Potency was inconclusive: 79.4 µM [inhibitor, partial curve].
`CCC(=O)N1CCc2cc(S(=O)(=O)CCC(=O)Nc3cc(Cl)ccc3OC)ccc21` was tested, and the Potency was active: 14.1 µM.
For `CC(C)CCC(CC(C)O)c1n[nH]c(=S)n1-c1ccccc1` (centres undefined), the Potency was active: 8.91 µM.
`CCOC(=O)c1c(CN(C)C)n(-c2ccc(C)cc2)c2cc(Br)c(O)cc12` was tested, and the Potency was inconclusive: 56.2 µM [inhibitor, partial curve].
With `CCOc1ccc(C(c2c(O)cc(C)n(Cc3ccco3)c2=O)N2CCN(C)CC2)cc1` (centres undefined) the Potency was inconclusive: 79.4 µM [inhibitor, partial curve].
For `Cc1cccc(-n2ccnc2SCC(=O)O)c1C`, the “activity change, negative = inhibition” value was inactive: -12.8%.
With `Cc1cc(C)c(-c2c(N)cc(Br)cc2Br)c(N)c1` the Potency was inconclusive: 56.2 µM [inhibitor, partial curve].
`CC(C)c1ccc(NC2CCCN(C(=O)c3cnn(C(C)C)c3)C2)cc1` (centres undefined) was tested, and the “activity change, negative = inhibition” value was inactive: -20.9%.
For `COc1ccc(-c2nnc3sc(C(C)N4C(=O)c5ccccc5C4=O)nn23)cc1` (centres undefined), the Potency was active: 17.8 µM.
With `C[C@]12c3[nH]c4ccc(Cl)cc4c3CCN1C(=O)[C@@H](CC(=O)NCC13CC4CC(CC(C4)C1)C3)C[C@@H]2C(=O)N1CCCCC1` the Potency was inconclusive: 44.7 µM [inhibitor, partial curve].
With `COc1ccc(-n2ncc(C(=O)NCc3cccs3)c2C2CCN(C(=O)OC(C)(C)C)CC2)cc1` the Potency was inconclusive: 63.1 µM [inhibitor, partial curve].
In the case of `O=C1OCC(CO)(CO)N=C1NNc1ccccc1Cl`, the Potency is reported as inconclusive: 56.2 µM [inhibitor, partial curve].
With `N#CC1=C(S)N(c2ccccc2)C(c2ccc(-c3cccc(Cl)c3)o2)NC1=O` (centres undefined) the Potency was inconclusive: 56.2 µM [inhibitor, partial curve].
In the case of `CN1CC2(C)CN(C(c3ccccc3)c3ccccc3)CC(C)(C1)C2O` (centres undefined), the Potency is reported as inconclusive: 25.1 µM [inhibitor, single point].
`Cc1cccc(N=Nc2c(N)n[nH]c2N)c1` was tested, and the Potency was inconclusive: 70.8 µM [inhibitor, single point].
For `CC[n+]1c(C)n(-c2ccccc2)c2ccc(NC(C)=O)cc21`, the Potency was inconclusive: 39.8 µM [inhibitor, partial curve].
For `Cc1[nH]n(-c2ccccc2)c(=O)c1N=Nc1c(O)cc(S(=O)(=O)N(C)C)c2ccccc12`, the Potency was active: 20 µM.
With `c1ccc(Nc2ccc3c4c(cccc24)CC3)cc1` the Potency was inconclusive: 63.1 µM [inhibitor, partial curve, poor fit].
With `CCOc1ccc2c(ccc(/C=C/c3cc(C)c4cccnc4c3O)[n+]2C)c1` the Potency was active: 10 µM.
With `CC(=O)Nc1c2c(nn1-c1cccc(Cl)c1)CS(=O)(=O)C2` the “activity change, negative = inhibition” value was inactive: -2.54%.
With `COc1ccc(-c2cn3c(n2)sc2cc(C(=O)NCCc4ccccc4)ccc23)cc1` the “activity change, negative = inhibition” value was inactive: -19.7%.
`CCCCC(=O)NC(=S)Nc1c(C)cc(Br)cc1C` was tested, and the Potency was inconclusive: 22.4 µM [inhibitor, full curve].
`CCOC(=O)Cc1cc(=O)[nH]n(-c2ccccc2)c1=O` was tested, and the “activity change, negative = inhibition” value was inactive: -10.3%.
`O=c1ccccn1CCOc1ccccc1Cl` was tested, and the “activity change, negative = inhibition” value was inactive: -11.9%.
With `Cc1ccc(-c2[nH]ncc2CNC(C)c2ccccc2)cc1` (centres undefined) the Potency was active: 4.47 µM.
In the case of `Cc1ccc(Cl)cc1N1CCN(C(=O)CSc2ccsc2[N+](=O)[O-])CC1`, the Potency is reported as inconclusive: 11.2 µM [inhibitor, full curve].
`CCN(CC(=O)Nc1ccc(NC(C)=O)cc1)C(=O)c1cc([N+](=O)[O-])ccc1Sc1ccc(Cl)cc1` was tested, and the Potency was inconclusive: 44.7 µM [inhibitor, partial curve].
`COc1ccccc1C(=O)N/C(=C/c1ccco1)C(=O)Nc1cccc(C(=O)O)c1` was tested, and the Potency was active: 79.4 µM.
With `CCOC(=O)c1cccc(NC(=O)COc2ccc3c(C)cc(=O)oc3c2)c1` the “activity change, negative = inhibition” value was inactive: -25.8%.
In the case of `Cc1cc(C)c2cc(CN(Cc3ccc4c(c3)OCO4)Cc3nnnn3Cc3ccco3)c(=O)[nH]c2c1`, the “activity change, negative = inhibition” value is reported as inactive: -34.9%.
With `Cc1ccc(C2Nc3cccc4cccc(c34)N2)s1` the Potency was inconclusive: 39.8 µM [inhibitor, partial curve].
For `COc1ccc(N2CCN(C(=O)Cc3csc(NC(=O)Nc4ccccc4OC)n3)CC2)cc1`, the activity change, negative = inhibition was inconclusive: -44.8% [inhibitor].
For `CC[n+]1ccc(/C=C2\Sc3ccccc3N2CCCS(=O)(=O)[O-])c2ccccc21`, the Potency was inconclusive: 39.8 µM [inhibitor, single point].
For `N#Cc1c2n(c3c(=S)nc[nH]c13)CCCCC2`, the Potency was active: 35.5 µM.
With `O=C(O)CCN1Cc2ccccc2C1=O` the Potency was inconclusive: 25.1 µM [inhibitor, partial curve, poor fit].
For `O=[N+]([O-])c1ccc(NCc2ccc(Cl)cc2)nc1`, the Potency was inconclusive: 50.1 µM [inhibitor, partial curve].
For `O=C(NCCN1CCOCC1)c1ccc2c(c1)N(Cc1ccccc1)CCS2`, the Potency was inconclusive: 25.1 µM [inhibitor, full curve].
`CC(=O)NCCC(=O)Nc1cc(S(=O)(=O)N2CCCCC2)ccc1N1CCN(C)CC1` was tested, and the Potency was inconclusive: 25.1 µM [inhibitor, partial curve].
For `COc1ccc(-c2csc(Nc3ccc(S(=O)(=O)Nc4cc(C)on4)cc3)n2)cc1C`, the Potency was inconclusive: 56.2 µM [inhibitor, partial curve].
For `COc1ccc(NC2CCCN(C(=O)COc3ccc(Cl)cc3C)C2)cc1OC` (centres undefined), the Potency was inconclusive: 50.1 µM [inhibitor, partial curve].
`CN1C(=O)/C(=C/c2ccc(O)c([N+](=O)[O-])c2)N(C)C1=S` was tested, and the Potency was inconclusive: 31.6 µM [inhibitor, partial curve, poor fit].
In the case of `CCC(C)NC(=O)Cn1c(=O)n(-c2ccc(Cl)cc2)c(=O)c2c3c(sc21)CCCC3` (centres undefined), the “activity change, negative = inhibition” value is reported as inactive: -4.1%.
In the case of `Cc1nc(C(C)Nc2ncnc3ccc(-c4ccc5c(c4)OCO5)cc23)cs1` (centres undefined), the Potency is reported as inconclusive: 79.4 µM [inhibitor, partial curve].
`Cc1ccc(-n2nnnc2SCC(=O)NCCc2ccccc2)cc1C` was tested, and the “activity change, negative = inhibition” value was inactive: 5.6%.
In the case of `O=C(O)c1ccc(Cl)c(NC(=S)NC(=O)c2cccc(COc3ccccc3)c2)c1`, the Potency is reported as inconclusive: 56.2 µM [inhibitor, partial curve].
With `O=C(Nc1nc2cc(Cl)ccc2s1)C1CCCN(S(=O)(=O)c2cccc3cccnc23)C1` (centres undefined) the Potency was inconclusive: 35.5 µM [inhibitor, full curve, poor fit].
For `CCc1cccc(CC)c1NC(=O)CSc1nnc(C2CC2)n1N`, the “activity change, negative = inhibition” value was inactive: -18.6%.
With `COc1ccc(N2CCN(CC(=O)NC(=O)NCc3ccco3)CC2)cc1` the Potency was inconclusive: 31.6 µM [inhibitor, single point].
For `CCN(CC)S(=O)(=O)c1cccc(-c2n[nH]c(=S)n2/N=C/c2ccc(OC)cc2)c1`, the Potency was inconclusive: 44.7 µM [inhibitor, single point].
In the case of `COc1cc(OC)cc(C(=O)NC(=S)N2CCCCCC2)c1`, the Potency is reported as inconclusive: 70.8 µM [inhibitor, single point].
With `CCOc1ccccc1NC(=O)Cn1c(=O)n(-c2ccc(C)cc2)c(=O)c2c1cnn2C` the “activity change, negative = inhibition” value was inactive: -9.56%.
With `Cc1cc(C)cc(NC(=O)CCn2cnc3ccccc3c2=O)c1` the “activity change, negative = inhibition” value was inactive: -18.7%.
`Cc1cccc(-c2nc(Nc3ccc(O)cc3)c3ccccc3n2)c1` was tested, and the Potency was inconclusive: 25.1 µM [inhibitor, single point].
`O=C(NC(=S)N1CCCCCC1)c1ccccc1Cl` was tested, and the “activity change, negative = inhibition” value was inactive: -14.3%.
For `Cc1cccc(C)c1-n1c(C)cc(/C=C2\C(=O)NN(c3ccccc3)C2=O)c1C`, the Potency was active: 22.4 µM.
For `CCc1nc(C)ccc1OCC(=O)N1CCc2c([nH]c3ccccc23)C1c1ccccn1` (centres undefined), the Potency was inconclusive: 50.1 µM [inhibitor, partial curve].
With `Cc1cc(C)cc(-n2ccnc2SCC(=O)Nc2ccccc2F)c1` the Potency was inconclusive: 44.7 µM [inhibitor, partial curve].
For `Cc1cc(C)nc(NC2=NCC(=O)N2c2ccc(Cl)cc2)n1`, the Potency was inconclusive: 22.4 µM [inhibitor, single point].
With `COc1c[nH]n(C2CCCCC2)c(=O)c1=O` the Potency was active: 20 µM.
`O=C(/C=C/c1cc2ccccc2o1)c1ccccc1O` was tested, and the Potency was active: 20 µM.
For `Cc1onc(-c2c(Cl)cccc2Cl)c1C(=O)N1CCSCC1`, the “activity change, negative = inhibition” value was inactive: -20.9%.
With `Nc1nonc1NC(=O)CSc1ncccc1C(=O)O` the Potency was inconclusive: 89.1 µM [inhibitor, single point].
`O=C(CNCCc1ccc(F)cc1)Nc1cc(F)ccc1F` was tested, and the Potency was active: 28.2 µM.
